Test results taken from patent US7348421B1, “Methods for production of p-hydroxybenzoate in bacteria” (North Carolina State University, priority 2000, dated 2008).
Read-outs that look alike come from different tables or passages of the source.

Key:
PhoA5 pPAT7 = type: cell-based, Pseudomonas putida; conditions: gradient 0 to 50 g/L, listed as histidine
P. putida DOT-T1E (#348) = type: cell-based, Pseudomonas putida; conditions: repeated lines

Row | SMILES | tolerance to amino acid (PhoA5 pPAT7) | Growth (distance in mm) on CAM gradient (P. putida DOT-T1E (#348); gradient 0-50 mg/L) | Growth (distance in mm) on CAM gradient (P. putida DOT-T1E (#348); gradient 0-100 mg/L)
1 | N[C@@H](Cc1c[nH]cn1)C(=O)O [Histidine, L-histidine] | at a level similar to that of the wild-type strain |  | 
2 | O=C(N[C@H](CO)[C@H](O)c1ccc([N+](=O)[O-])cc1)C(Cl)Cl [CAM, chloramphenicol] |  | 90 mm | 90 mm
